# Measured values taken from PubChem BioAssay AID720542 (National Center for Advancing Translational Sciences (NCATS), 2013).
# The whole screen tested about 360,000 compounds, of which about 740 (0.21%) were called active. Inconclusive means that the source gave no clear call. Such entries were picked first, then a sample of the others. Calls follow the shape of the dose curve; as a rule, active = well fitted inhibition curve with a large enough effect; inconclusive = small, poorly fitted or top-dose-only effect; inactive = no such curve, though single readings can be large or run the other way. No potency is given beside an inconclusive call; the fits are too rough.
# Tested on: Plasmodium falciparum AMA1 (3D7) - RON2 peptide interaction
# Assay: qHTS for Inhibitors of AMA1-RON; Towards Development of Antimalarial Drug Lead: Primary Screen; also: nearly all actives have a fitted effect of over 45% in size;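 as to activity change, negative = inhibition: 0% = vehicle wells and -100% = peptide control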
# Details: AlphaScreen AMA1-biotinylated RON2 peptide binding; activity change, negative = inhibition: at 58.2 µM (top of the series) unless noted
# Summary of the method: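 AMA1 (3D7) with his tag at 25 nM final met compounds first, then biotinylated RON2 peptide at 25 nM; detection used donor plus acceptor beads, 10 µg/mL apiece, read by AlphaScreen after 30 min at room temperature.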
# Potency is read from the fitted curve at half-maximal effect; tags tell the direction and shape of the fitted curve.
Structure (SMILES),Potency,"activity change, negative = inhibition"
CCOC(=O)C1=C(C)N(c2ccccc2)C(=O)/C1=C\c1ccc(O)c(OC)c1,"inconclusive [inhibitor, single point]",–
COc1ccc(CCNC(=O)COC(=O)/C=C/c2ccc(OCC#N)c(OC)c2)cc1,inactive,–
COc1ccc(CN(C(=O)CN2C(=O)COc3ccccc32)C2CCCC2)c(OC)c1,inactive,–
CC(C)OCCCn1c(=S)[nH]c2ncccc2c1=O,inactive,–
O=C(NCc1cccnc1)c1cc(C2CCCCN2C(=O)CCCc2ccccc2)on1 (configuration not stated),inactive,–
Cc1cccc(NS(=O)(=O)c2ccc(C)c(C(=O)NCCCN3CCOCC3)c2)c1,inactive,–
COC(=O)N/N=C/c1ccc([N+](=O)[O-])o1,inactive,–
COc1ccc(CCNC(=O)[C@@H](NC(=O)N2CC(=O)Nc3ccccc32)C(C)C)cc1OC,inactive,–
CC1=C(CC(=O)c2ccccc2)C(=O)c2ccccc2C1=O,"inconclusive [inhibitor, partial curve]",–
Cc1ccc(C(=S)N2CCN(Cc3ccccc3)CC2)cc1,"inconclusive [inhibitor, partial curve]",–
Nc1cc2c(cc1C(=O)c1cccc(Br)c1)OCCO2,"inconclusive [inhibitor, single point]",–
CN1CCN(C(=O)NC2CCCCC2)CC1,"inconclusive [inhibitor, partial curve]",–
Cc1ccc2c(CNCc3ccco3)cc(=O)oc2c1,inactive,–
COc1ccc(/C=C2\CCC/C(=C\C=N\N(C)C)C2=O)cc1,"inconclusive [inhibitor, single point]",–
Cc1ccc(-c2nc3ccccn3c2Nc2ccccc2)o1,"inconclusive [inhibitor, partial curve]",–
O=C1CCSc2cccc3cccc(c23)N1,"inconclusive [inhibitor, single point]",–
O=[N+]([O-])c1cc([N+](=O)[O-])c2nonc2c1Nc1ccc(O)cc1,"inconclusive [inhibitor, single point]",–
CC(C)CCNC(=O)CN(C(=O)CCC(=O)Nc1nccs1)C1CCCCC1,inactive,–
COc1cccc(C(=O)N2CCN(Cc3ccccn3)CC2)c1,"inconclusive [inhibitor, partial curve]",–
CCn1cc([N+](=O)[O-])nc1C,inactive,–
CSc1nsc(SCC(=O)Nc2cccc(C(=O)O)c2)n1,inactive,–
Cc1ccc(Cn2c(C3CCCN3c3nc(-c4cc(Cl)c(N)c(Cl)c4)cs3)nc3cc(C(=O)NCCCO)ccc32)cc1 (configuration not stated),inactive,–
C=CCSC1=N/C(=C\C=C\c2ccco2)C(=O)S1,"inconclusive [inhibitor, partial curve]",–
Nc1cc([N+](=O)[O-])ccc1Nc1ccccc1,"inconclusive [inhibitor, single point]",–
Cc1ccc(C(=O)/C=C/c2cc(C#N)n(C)c2C)cc1,"inconclusive [inhibitor, partial curve]",–
FC(F)(F)C1=Nc2cccc3cccc(c23)N1,"inconclusive [inhibitor, partial curve]",–

Structure (SMILES),Potency,"activity change, negative = inhibition"
Fc1ccccc1/C=N/n1cc(-c2ccccc2)[nH]c1=S,inactive,–
O=C(Nc1ccccc1Oc1cccnc1)C1CCCN(C/C=C/c2ccc(F)cc2)C1 (configuration not stated),inactive,–
CC(=O)c1c(C(C)=O)c(C)n(-c2ccc3ncccc3c2)c1C,inactive,–
COC(=O)Cc1ccc(NC(=S)Nc2ccc(N3CCOCC3)cc2)cc1,"inconclusive [inhibitor, single point]",–
O=C(O)CSc1nnc(-c2ccncc2)n1-c1ccc(Cl)cc1,"inconclusive [inhibitor, single point]",–
Oc1ccc(N=Nc2c(O)ccc3ccccc23)cc1,active: 16.8 µM,–
O=c1cnnc(SCc2ccc([N+](=O)[O-])cc2)[nH]1,"inconclusive [inhibitor, partial curve]",–
CN(C)c1ccc(Nc2c3c4c(cccc4n(C)c2=O)C(=O)c2ccccc2-3)cc1,active: 4.47 µM,–
COc1cc(CN2CCCC(C(=O)c3sccc3C)C2)cc(OC)c1O (configuration not stated),inactive,–
C=CCN1C(=O)C(CC(=O)NCC)SC1=Nc1ccccc1OC (configuration not stated),inactive,–
CCN(CC)c1ccc([C@H]2[C@@H]3CCCC[C@]3(O)CCN2CC(=O)NCc2ccco2)cc1,inactive,–
Cc1cc(C(C#N)c2ccccc2F)n2ncnc2n1 (configuration not stated),inactive,–
COc1ccc(C(=O)CSc2nnc(-c3cnccn3)n2Cc2ccco2)cc1,"inconclusive [inhibitor, partial curve]",–
CCCn1c(=O)c(C(=O)OCC)c(O)c2cc(Br)ccc21,"inconclusive [inhibitor, full curve]",–
O=[N+]([O-])c1ccc2c([N+](=O)[O-])ccc3c2c1CC3,"inconclusive [inhibitor, partial curve]",–
O=C(c1cc(Cl)cc(Cl)c1)N1CCC2CC1c1cc(N3CCCCC3)ccc12 (configuration not stated),"inconclusive [inhibitor, partial curve]",–
Cc1cccc(-n2ccnc2SCC(=O)Nc2ccc3c(c2)OCCO3)c1,inactive,–
CCOC(=O)c1nn(-c2ccc(C)cc2)c(=O)c2c(N)scc12,inactive,–
O=C(c1ccccc1)N1CCN(c2ccc([N+](=O)[O-])cc2-n2cccc2)CC1,"inconclusive [inhibitor, single point]",–
COc1ccc(OCC(=O)NC(=S)N2CCCc3ccccc32)cc1,"inconclusive [inhibitor, partial curve]",–
CN(CCOC(=O)C1c2ccccc2Oc2ccccc21)C(C)(C)C,"inconclusive [inhibitor, partial curve]",–
CN1CCN(C2Cc3cc(Cl)ccc3Sc3cc(F)ccc32)CC1 (configuration not stated),"inconclusive [inhibitor, single point]",–
Cc1[nH]c2c([N+](=O)[O-])cccc2c1C,"inconclusive [inhibitor, single point]",–
O=C(NO)c1ccc(C(=O)N(C2CCCCC2)C2CCCCC2)cc1,inactive,–
COc1ccc(C=NN=C2c3ccccc3-c3ccccc32)cc1OC,"inconclusive [inhibitor, partial curve]",–
CCN(CCCNC(=O)CCc1nc(-c2ccc(OC)cc2)no1)c1cccc(C)c1,"inconclusive [inhibitor, single point]",–

Structure (SMILES),Potency,"activity change, negative = inhibition"
CN(C)CCCN(C(=O)c1ccc(N2C(=O)CCC2=O)cc1)c1nc2c(F)cccc2s1,inactive,–
CCC1=[N+](CC(=O)c2ccc(Br)cc2)CCn2c(C)ccc21,inactive,–
COc1cnn(-c2ccc(Br)cc2)c(=O)c1SCc1ccccc1,inactive,–
COc1ccc2nc(C)cc(N3CCN(c4ccccc4)CC3)c2c1,"inconclusive [inhibitor, single point]",–
COc1ccccc1N1CCN(c2ncnc3sc(C)c(-c4ccccc4)c23)CC1,"inconclusive [inhibitor, partial curve]",–
CCCCCc1cc(=O)oc2c(C(CCN3CCCC(C)C3)c3ccc(N(C)C)cc3)c(OC)cc(OC)c12 (configuration not stated),active: 14.1 µM,–
O=C(c1ccco1)N1CCN(C(c2cccs2)c2nnnn2C2CCCC2)CC1 (configuration not stated),inactive,–
Cc1ccc(Nc2nc(N)nc(CSCCO)n2)cc1,"inconclusive [inhibitor, single point]",–
CN1CCc2c(sc(NC(=O)C3COc4ccccc4O3)c2C(N)=O)C1 (configuration not stated),inactive,–
COCCCNCCCCOc1ccc(Br)cc1C,inactive,–
CCc1nc(C)ccc1OCC(=O)NCCCN(C)C,"inconclusive [inhibitor, single point]",–
CCCc1c(C)nn(-c2ncccc2[N+](=O)[O-])c1C,inactive,–
Cc1ccc(-n2c(C)nn(CC3CC3)c2=O)cc1,"inconclusive [inhibitor, full curve, poor fit]",–
Cc1ccc(CNC(=O)CN(C)S(=O)(=O)c2ccc3c(c2)n(C)c(=O)c(=O)n3C)cc1,inactive,–
O=C(NCC(c1ccco1)N1CCc2ccccc21)c1cccc(F)c1 (configuration not stated),"inconclusive [inhibitor, single point]",–
CCOC(=O)C(=CNc1cccnc1Oc1ccc(C)c2c1CCC2)C(=O)OCC,inactive,–
N#CC1=C(N)Oc2cc3ccccc3cc2C1c1cccs1 (configuration not stated),–,inconclusive: -6.19% [inhibitor]
COC(=O)c1ccc(-c2ccco2)n1Cc1cccc(C)c1,"inconclusive [inhibitor, partial curve]",–
C=CCN(c1ccccc1)S(=O)(=O)c1cc2c(cc1C)N(C)CCO2,"inconclusive [inhibitor, single point]",–
COc1ccc(N2CCN(c3nc(Nc4ccc(C)c(F)c4)nc(N4CCCC4)n3)CC2)cc1,"inconclusive [inhibitor, full curve]",–
Cc1cc(C(=O)COC(=O)c2cc(Cl)c(O)c(Cl)c2)c(C)n1C,"inconclusive [inhibitor, partial curve]",–
COc1cc2c(cc1OC)-c1cc(NCc3ccccn3)nc(=O)n1CC2,"inconclusive [inhibitor, single point]",–
Cc1ccc(OCc2nc3ccccc3n2C(C(=O)Nc2c(C)cccc2C)C2CC2)cc1 (configuration not stated),"inconclusive [inhibitor, partial curve]",–
O=C(c1ccc(N2CCCC2)c([N+](=O)[O-])c1)N1CCc2ccccc2C1,"inconclusive [inhibitor, partial curve]",–
CC(C)(C)C1CCC2(CC1)Nc1cccc3cccc(c13)N2,inactive,–
